# Experimental data: PubChem BioAssay AID1362 (SRMLSC, 2008)
# The list shows a part of the results. Shown are side measurements of this screen, not its main read-out; they come without a call. Most of these compounds were active or inconclusive in the main read-out, so they are no random draw.
# Assay: growth inhibition of WT strain, primary screen, mitochondrial fusion inhibitor project, WT and mutant strains, chemical genetic (AID 1362); note: tested in S. cerevisiae
# Conditions: mitochondrial fusion phenotypic screen, at 10 µM
row,SMILES,inhibition
1,Cc1cc(C)c(C(=O)Nc2ccc(Br)c(C(F)(F)F)c2)c(C)c1,78.1%
2,CCCCNC(=S)N/N=C/c1cc(C)ccc1C,18.3%
3,CCc1ccc(-c2nc(CN3CCC(C(=O)NCCN(CC)c4ccccc4)CC3)c(C)o2)cc1,57.5%
4,CCOc1cc(/C=N/NC(=O)COc2ccccc2C)ccc1OC(=O)c1cccs1,46.8%
5,O=C(CN1CCN(c2ccccn2)CC1)N(c1ccccc1)c1ccc2ccccc2c1,-15.9%
6,O=c1cc(CN2CCN(C/C=C/c3ccccc3)CC2)c2cc(O)c(-c3ccccc3)cc2o1,34.7%
7,COc1ccc(-c2cc(C3CCN(c4cc(Cl)nc(N)n4)CC3)[nH]n2)cc1,26.8%
8,COC(=O)c1cn(C(=O)c2ccc(C)cc2C)c2ccccc12,56.1%
9,Cc1cc(Br)ccc1NC(=O)CN1C(=O)C2C3CC(c4ccccc4)C(C3)C2C1=O (stereo not drawn),-4.2%
10,COc1ccccc1Cn1c(-c2ccccc2OC)nc2ccccc21,46.9%
11,O=C(CSc1nc2ccccc2o1)Nc1nc(-c2ccccc2)cs1,45.4%
12,Cc1ccc(Sc2c(C)nn(C(=O)C3CC3)c2C)cc1,38.5%
13,COc1ccc(C=O)cc1CSc1nnc(COc2cccc3cccnc23)o1,40.3%
14,Cc1cc(N2CCCCC2)nc(-c2ccc(Br)cc2)n1,59%
15,Cc1ccccc1NC1=C(Cl)C(=O)N(C2CCCCC2)C1=O,6.47%
16,C(=N\Nc1nc(N2CCCCCC2)nc(N2CCCCCC2)n1)/c1ccccc1,10.4%
17,Cc1ccc(-c2csc3ncnc(SCc4ccc(C(=O)O)cc4)c23)cc1,45.5%
18,CCOC(=O)c1c(C)[nH]c(C)c1C(=O)CSc1nnc(-c2ccncc2)n1C,-4.19%
19,CC1(C)CC(=O)C2=C(C1)N=c1s/c(=C/c3ccc(F)c(F)c3)c(=O)n1C2c1ccc(F)cc1 (stereo not drawn),33.3%
20,O=[N+]([O-])c1ccc2nc(-c3ccc(Cl)cc3)[nH]c2c1,53.2%
21,O=C(NCc1ccc2c(c1)OCO2)c1ccc(COc2cccc(Cl)c2)o1,30.7%
22,Cc1ccc(SCc2cn3c(C)csc3n2)cc1,58.5%
23,COC(=O)Cc1cn(-c2ncc(C(F)(F)F)cc2Cl)c2ccccc12,82.1%
24,C=CCn1c(SCC(=O)Nc2ccc3c(c2)CCC3)nnc1-c1cccs1,9.53%
25,CC1=NN(c2ccc(Cl)cc2)C(=O)/C1=C\c1cccn1-c1ccc(S(N)(=O)=O)cc1,65.4%
26,O=C1CC(SCc2nc3ccccc3[nH]2)C(=O)N1c1cccc(F)c1 (stereo not drawn),13.3%
27,O=C(Nc1ccccc1)Nc1ncc([N+](=O)[O-])s1,58.7%

row,SMILES,inhibition
1,COc1c(OC(C)=O)ccc(/C=C/c2ccc3ccccc3n2)c1[N+](=O)[O-],42%
2,NC(=O)COC(=O)c1ccc(Cl)c(S(=O)(=O)N(Cc2ccccc2)c2ccc(Cl)cc2)c1,12.2%
3,CSc1ccccc1NC(=S)N/N=C/c1cccn1Cc1cccc(C)c1,18.7%
4,O=S(=O)(Nc1ccc(-c2csc(-c3ccccc3)n2)cc1)c1ccccc1,60.7%
5,CC(C)(C)c1ccc(OCCCNCc2ccccc2)cc1,86.1%
6,Cc1ccccc1OCC(=O)Nc1ccccc1N1CCC(C)CC1,0.87%
7,COc1ccc(-n2cc(CNC3CCN(C)CC3)c(-c3cccc(F)c3)n2)cc1,46.1%
8,COc1cc(-c2nc(-c3cccc(C)c3)no2)cc(OC)c1OC,47.3%
9,Cc1ccc(CNc2oc(-c3ccco3)nc2S(=O)(=O)c2ccccc2)cc1,48.1%
10,CN=c1scc(-c2ccccc2Br)n1/N=C/c1ccc[nH]1,52.1%
11,CC(=O)Cc1nsc(NC(=O)c2ccc(-c3ccc(Cl)c(Cl)c3)o2)n1,-29.1%
12,Nc1cc(N)nc(SCC(=O)N2CCc3ccccc32)n1,1.85%
13,CN1/C(=C\C(=O)Nc2ccc(F)cc2)C(C)(C)c2ccccc21,26%
14,CCc1cccc(CC)c1NC(=S)NCCc1c(C)[nH]c2ccccc12,-23.9%
15,COc1ccccc1/C=C/CN1CCCC(CO)(Cc2cccc(Cl)c2)C1 (stereo not drawn),61.9%
16,Cc1ccc(-n2c(-c3ccccc3)cc(/C=N/NC(=O)CC#N)c2-c2ccccc2)cc1,0.35%
17,COC1(C)CC2C(CC1OC(=O)c1cc([N+](=O)[O-])cc([N+](=O)[O-])c1)C2(C)C (stereo not drawn),69.1%
18,Cc1ccccc1OCc1n[nH]c(=S)n1Cc1ccccc1,33.7%
19,Clc1ccc(SCCOCCN2CCc3ccccc3C2)cc1,60.5%
20,Cc1ccc(-c2nc(NCc3ccco3)c3ccccc3n2)cc1,53.2%
21,NC(=S)N/N=C/c1ccc(-c2cc(Cl)ccc2Cl)o1,64.9%
22,CC1CCN(C(=O)c2ccc3c(c2NCCO)C(=O)c2ccccc2C3=O)CC1,41.1%
23,Cc1ccc(CN2CCN(/N=C/c3ccc(Cl)c([N+](=O)[O-])c3)CC2)cc1,53.6%
24,Nc1nc(COc2ccc3ccccc3c2)cs1,68.6%
25,O=C(CNc1cccc2ccccc12)N/N=C/C(Br)=C/c1ccccc1,65.9%
26,CCOc1ccccc1NC(C)C(=O)Nc1cc(C(F)(F)F)ccc1N1CCOCC1 (stereo not drawn),3.85%
